Patent publication US20250270339A1 (Alector, published 2025)

T1: Cyno TfR ECD Avi-His (cynomolgus macaque, UniProt Q5RDH6 89-760 (Pongo abelii entry), biotin on the Avi tag (BirA) where captured on streptavidin)
T1 construct: also called Cyno TfR Avi-His; cyno TfR Avi-His
T1 chain: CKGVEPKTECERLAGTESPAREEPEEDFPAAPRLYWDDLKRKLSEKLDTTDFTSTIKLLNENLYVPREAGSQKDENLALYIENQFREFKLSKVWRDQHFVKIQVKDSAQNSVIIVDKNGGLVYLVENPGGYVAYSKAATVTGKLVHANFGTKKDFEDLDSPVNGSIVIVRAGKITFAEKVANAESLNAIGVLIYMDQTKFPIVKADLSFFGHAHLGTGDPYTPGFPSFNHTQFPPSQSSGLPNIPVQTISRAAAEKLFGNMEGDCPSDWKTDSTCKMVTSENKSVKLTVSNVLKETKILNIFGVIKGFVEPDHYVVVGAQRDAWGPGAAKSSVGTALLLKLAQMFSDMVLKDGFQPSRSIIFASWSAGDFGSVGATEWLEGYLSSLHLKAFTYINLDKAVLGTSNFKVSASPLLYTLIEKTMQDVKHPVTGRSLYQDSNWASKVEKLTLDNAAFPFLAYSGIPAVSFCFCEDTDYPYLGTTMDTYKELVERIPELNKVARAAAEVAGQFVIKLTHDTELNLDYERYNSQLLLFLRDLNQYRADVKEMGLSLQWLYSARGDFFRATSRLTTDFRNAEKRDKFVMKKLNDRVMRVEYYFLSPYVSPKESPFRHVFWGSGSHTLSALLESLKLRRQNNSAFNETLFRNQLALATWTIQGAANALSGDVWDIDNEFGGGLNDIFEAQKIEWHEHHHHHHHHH


Molecular target: T1, Cyno TfR ECD Avi-His
Assay: SPR (Carterra LSA), 2+1 immobilised
Experimental: The remaining unconjugated active groups on the chip were then blocked by injecting 1M Ethanolamine pH 8.5 (Carterra) for 7 minutes using the single channel flow cell.
Estimates of affinity were generated by injecting each analyte over the entire antibody array using the single channel flow cell. […] Data were processed and analyzed using NextGenKIT high-throughput kinetics analysis software (Carterra).

binding result | Binder
binds | TfR9.1B.28 2+1 anti-TfR bispecific antibody (bispecific antibody, human IgG1, kappa, 2+1) heavy 1: EVRLLESGGGLVQPGGSLRLSCAASGFTFSNYAMGWVRQAPGKGLEWVSAISGSGGSTYYADSVKGRFTTSRDDSKNALYLQMNSLRAEDTAVYYCARGGPGWYAADVWGQGTTVTVSSASTKGPSVFPLAPSSKSTSGGTAALGCLVKDYFPEPVTVSWNSGALTSGVHTFPAVLQSSGLYSLSSVVTVPSSSLGTQTYICNVNHKPSNTKVDKKV[here human IgG1 Fc with changes without letters]GGGGSGGGGSGGGGSQVQLVQSGAEVKKPGASVKVSCKASGYTFTEYAMHWVRQAPGQGLEWMGGINPNDGGTSYNQKFKGRVTMTVDTSTSTAYMELSSLRSEDTAVYYCASQRWLQRGGDYWGQGTLVTVSSGGSEGKSSGSGSESKSTGGSDVVMTQSPLSLPVTLGQPASISCKSSQSLEDSDGKTYLNWLQQRPGQSPRRLIYLVSKLDSGVPDRFSGSGSGTDFTLKISRVEAEDVGVYYCWQGTHFPQTFGGGTKVEIK heavy 2: EVRLLESGGGLVQPGGSLRLSCAASGFTFSNYAMGWVRQAPGKGLEWVSAISGSGGSTYYADSVKGRFTTSRDDSKNALYLQMNSLRAEDTAVYYCARGGPGWYAADVWGQGTTVTVSS[here human IgG1 constant region with changes without letters] light: DIQMTQSPSSLSASVGDRVTITCRASQSISSYLNWYQQKPGKAPKLLIYAASSLQSGVPSRFSGSGSGTDFTLTISSLQPEDFATYYCQQADLPAFAFGGGTKVEIKRTVAAPSVFIFPPSDEQLKSGTASVVCLLNNFYPREAKVQWKVDNALQSGNSQESVTEQDSKDSTYSLSSTLTLSKADYEKHKVYACEVTHQGLSSPVTKSFNRGEC
binds | TfR9.1B.33 2+1 anti-TfR bispecific antibody (bispecific antibody, human IgG1, kappa, 2+1) heavy 1: EVRLLESGGGLVQPGGSLRLSCAASGFTFSNYAMGWVRQAPGKGLEWVSAISGSGGSTYYADSVKGRFTTSRDDSKNALYLQMNSLRAEDTAVYYCARGGPGWYAADVWGQGTTVTVSSASTKGPSVFPLAPSSKSTSGGTAALGCLVKDYFPEPVTVSWNSGALTSGVHTFPAVLQSSGLYSLSSVVTVPSSSLGTQTYICNVNHKPSNTKVDKKV[here human IgG1 Fc with changes without letters]GGGGSGGGGSGGGGSQVQLVQSGAEVKKPGASVKVSCKASGYTFTEYAMHWVRQAPGQGLEWMGGINPNDGGTSYNQKFKGRVTMTVDTSTSTAYMELSSLRSEDTAVYYCASQRWLYRGGDYWGQGTLVTVSSGGSEGKSSGSGSESKSTGGSDVVMTQSPLSLPVTLGQPASISCKSSQSLLDEDGKTYLNWLQQRPGQSPRRLIYQVSKLDSGVPDRFSGSGSGTDFTLKISRVEAEDVGVYYCWQGTHFPQTFGGGTKVEIK heavy 2: EVRLLESGGGLVQPGGSLRLSCAASGFTFSNYAMGWVRQAPGKGLEWVSAISGSGGSTYYADSVKGRFTTSRDDSKNALYLQMNSLRAEDTAVYYCARGGPGWYAADVWGQGTTVTVSS[here human IgG1 constant region with changes without letters] light: DIQMTQSPSSLSASVGDRVTITCRASQSISSYLNWYQQKPGKAPKLLIYAASSLQSGVPSRFSGSGSGTDFTLTISSLQPEDFATYYCQQADLPAFAFGGGTKVEIKRTVAAPSVFIFPPSDEQLKSGTASVVCLLNNFYPREAKVQWKVDNALQSGNSQESVTEQDSKDSTYSLSSTLTLSKADYEKHKVYACEVTHQGLSSPVTKSFNRGEC
